This experiment addresses GTPase KRas (Homo sapiens) (UniProt P01116). Kind of experiment: Covalent labelling of cysteine mutants by fragments, read by mass spectrometry (AID 2202238). On the set-up: protein at 5 µM with 500 µM competing thiol for 1.5 h. The note with it: KRAS G12D cysteine mutants, disulfide tethering, MALDI-TOF labeling, stronger effect = higher value, fragment at 500 µM.
[1] abbreviates: measured here: G60C mutant labeling.
Setting [2] is: measured here: G75C mutant labeling.
Where [3] appears, read: measured here: H94C mutant labeling.
Setting [4] is: measured here: I36C mutant labeling.
[5] abbreviates: measured here: L120C mutant labeling.
Setting [6] is: measured here: M67C mutant labeling.
Setting [7] is: measured here: M72C mutant labeling.
The mark [8] stands for this setting: measured here: N26C mutant labeling.
Where [9] appears, read: measured here: N86C mutant labeling.
[10] abbreviates: measured here: P121C mutant labeling.
The mark [11] stands for this setting: measured here: S122C mutant labeling.
The mark [12] stands for this setting: measured here: S136C mutant labeling.

The list shows a part of the results. Shown are side measurements of this screen, not its main read-out; they come without a call.

The values below come from PubChem BioAssay AID2202238 (Ras Initiative Chemistry Research Team, Frederick National …, 2025).

UniProt P01116, sequence (P01116 whole entry, looked up, the tested form may be a part): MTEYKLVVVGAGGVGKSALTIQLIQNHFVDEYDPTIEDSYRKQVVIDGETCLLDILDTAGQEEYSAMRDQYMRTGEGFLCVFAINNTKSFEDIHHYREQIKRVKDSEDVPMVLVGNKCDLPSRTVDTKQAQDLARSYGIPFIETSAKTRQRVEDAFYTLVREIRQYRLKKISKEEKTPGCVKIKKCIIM

As for `CCc1n[nH]c(=O)c(C(=O)NCCS)c1CC`, the percent labeling under setting [1] is 36%; the percent labeling under setting [2] turned out to be 13.3%; the percent labeling under setting [3] amounted to 29.7%; the percent labeling under setting [4] was 22.5%; the percent labeling under setting [5] turned out to be 38.9%; the percent labeling under setting [6] stood at 32%. The percent labeling by setting is: under setting [7], 23.4%; under setting [8], 39.6%; under setting [9], 28.9%; under setting [10], 42.4%; under setting [11], 31.4%; under setting [12], 47.6%.

Regarding `Cc1ccc(C)c(Sc2ccc(NC(=O)CCS)cc2)c1`, the percent labeling by setting is: under setting [2], 12.2%; under setting [3], 16%; under setting [4], 20.4%; under setting [5], 15.6%; under setting [6], 31.6%; under setting [7], 38%. The percent labeling reads like this: under setting [9], 25%; under setting [10], 18.5%; under setting [11], 10.7%; under setting [12], 36.2%.

Regarding `O=C(CC1(Cn2cnnn2)CCCCC1)NCCS`, the percent labeling runs as follows: under setting [1], 53.4%; under setting [2], 16.2%; under setting [3], 43.4%; under setting [4], 45.9%; under setting [5], 45.4%; under setting [6], 41.4%. In addition, the percent labeling worked out at 34.9% under setting [7]; 35.1% under setting [8]; 33% under setting [9]; 39.5% under setting [10]; 36.2% under setting [11]; 60.3% under setting [12].

On to `O=C(CCS)NC1(Cc2cccc(Br)c2)CC1`, for which the percent labeling runs as follows: under setting [2], 14.2%; under setting [3], 43.2%; under setting [4], 30.8%; under setting [5], 18.5%; under setting [6], 37.1%; under setting [7], 53.2%. The percent labeling was determined as 21% under setting [9], 29.6% under setting [10], 24.6% under setting [11] and 49.3% under setting [12].

Turning to `O=C(CCS)NCCc1ccc(O)cc1O`, the percent labeling stood at 16.8% under setting [2]; 34.9% under setting [3]; 43% under setting [4]; 29.7% under setting [5]; 37.4% under setting [6]; 36.3% under setting [7]. This molecule also registered a percent labeling under setting [9] of 36.4%, a percent labeling under setting [10] of 32.3%, a percent labeling under setting [11] of 36.9% and a percent labeling under setting [12] of 49.3%.

On to `CC(C)(NC(=O)CCS)c1nccc(C(F)(F)F)n1`, for which the percent labeling is, setting by setting: under setting [2], 10.2%; under setting [3], 36.8%; under setting [4], 37.5%; under setting [5], 35.7%; under setting [6], 35.8%; under setting [7], 26.9%. Also, the percent labeling under setting [9] came out at 37.6%, the percent labeling under setting [10] amounted to 38.8%, the percent labeling under setting [11] is 40.9% and the percent labeling under setting [12] stood at 53.2%.

Molecule `O=C(NCCS)c1cc(Br)c2c(c1)OCCO2` returned a percent labeling under setting [1] of 40.7%; a percent labeling under setting [2] of 21.2%; a percent labeling under setting [3] of 18.7%; a percent labeling under setting [4] of 12.1%; a percent labeling under setting [5] of 14.5%; a percent labeling under setting [6] of 13.1%. In addition, the percent labeling is, setting by setting: under setting [7], 37%; under setting [8], 29.7%; under setting [9], 12.7%; under setting [10], 13.1%; under setting [11], 9.3%; under setting [12], 19.4%.

As to `O=C(NCCS)c1nc(-c2cccc(C(F)(F)F)c2)cs1`, the percent labeling runs as follows: under setting [1], 27.7%; under setting [2], 20.9%; under setting [3], 18.8%; under setting [4], 9.6%; under setting [5], 8.6%; under setting [6], 7.5%. Moreover, the percent labeling by setting is: under setting [7], 47.7%; under setting [8], 20.3%; under setting [9], 10.6%; under setting [10], 16.4%; under setting [11], 5.6%; under setting [12], 12.9%.

With `O=C(NCCS)c1csc(Cc2ccccc2F)n1`, the percent labeling under setting [1] was 22.8%; the percent labeling under setting [2] was 10.3%; the percent labeling under setting [3] came to 17.5%; the percent labeling under setting [4] is 10%; the percent labeling under setting [5] is 16.4%; the percent labeling under setting [6] worked out at 13.4%. In addition, the percent labeling runs as follows: under setting [7], 34.4%; under setting [8], 25.5%; under setting [9], 11.2%; under setting [10], 13.2%; under setting [11], 10.5%; under setting [12], 18.7%.

The molecule `CCc1c(C(=O)NCCS)[nH]c(C)c1C(N)=O` came in with a percent labeling under setting [1] of 37.2%; a percent labeling under setting [2] of 22.8%; a percent labeling under setting [3] of 40.8%; a percent labeling under setting [4] of 34.9%; a percent labeling under setting [5] of 47.4%; a percent labeling under setting [6] of 35.7%. For the same molecule, the percent labeling under setting [7] worked out at 41.1%; the percent labeling under setting [8] was 47.4%; the percent labeling under setting [9] is 37.9%; the percent labeling under setting [10] came to 32.3%; the percent labeling under setting [11] was determined as 36.6%; the percent labeling under setting [12] amounted to 45.8%.

For `O=C(NCCS)c1csc2cc(Cl)cnc12`, the percent labeling worked out at 33.6% under setting [1]; 42% under setting [2]; 23.6% under setting [3]; 8.1% under setting [4]; 14.3% under setting [5]; 12.4% under setting [6]. Besides, the percent labeling reads like this: under setting [7], 57.8%; under setting [8], 30.9%; under setting [9], 7.3%; under setting [10], 13.2%; under setting [11], 8.5%; under setting [12], 17.4%.

As to `O=C(NCCS)c1cc(-c2ccncc2)nc2ccccc12`, the percent labeling under setting [1] is 33.5%; the percent labeling under setting [2] stood at 11.7%; the percent labeling under setting [3] was found to be 14.6%; the percent labeling under setting [4] was found to be 14%; the percent labeling under setting [5] is 13.7%; the percent labeling under setting [6] amounted to 15.6%. For the same molecule, the percent labeling was 30.7% under setting [7]; 40.6% under setting [8]; 8.5% under setting [9]; 12.2% under setting [10]; 9.3% under setting [11]; 24.3% under setting [12].

As to `O=C(CCS)N1C[C@@H]2Oc3c(F)ccc(F)c3O[C@@H]2C1`, the percent labeling under setting [2] was 0%; the percent labeling under setting [3] amounted to 27.5%; the percent labeling under setting [4] was determined as 34.1%; the percent labeling under setting [5] turned out to be 25.8%; the percent labeling under setting [6] is 38.4%; the percent labeling under setting [7] was determined as 37.8%. Further, the percent labeling is, setting by setting: under setting [9], 28.6%; under setting [10], 32.4%; under setting [11], 20.3%; under setting [12], 49.2%.

For the molecule `N#Cc1cccc(CN2C(=O)CCC2C(=O)NCCS)c1` (stereo not drawn), the percent labeling reads like this: under setting [1], 37.9%; under setting [2], 14.6%; under setting [3], 36.6%; under setting [4], 34.6%; under setting [5], 26.8%; under setting [6], 39.9%. Moreover, the percent labeling runs as follows: under setting [7], 16.2%; under setting [8], 35.6%; under setting [9], 26.6%; under setting [10], 33.6%; under setting [11], 31%; under setting [12], 46.4%.
